Measurements taken from US11773160 (ANAVEON, dated 2023).

T1: IL-2R on murine splenocytes (C57BL/6)
T1 sequence (P01590 whole entry, looked up): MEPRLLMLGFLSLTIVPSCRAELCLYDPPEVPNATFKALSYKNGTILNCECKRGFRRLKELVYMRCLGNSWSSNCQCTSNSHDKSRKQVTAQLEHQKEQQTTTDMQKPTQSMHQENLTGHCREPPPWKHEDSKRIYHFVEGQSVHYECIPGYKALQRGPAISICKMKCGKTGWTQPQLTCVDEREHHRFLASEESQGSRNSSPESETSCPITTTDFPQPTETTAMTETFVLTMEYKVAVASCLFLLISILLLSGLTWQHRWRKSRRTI
T1 sequence (P16297 whole entry, looked up): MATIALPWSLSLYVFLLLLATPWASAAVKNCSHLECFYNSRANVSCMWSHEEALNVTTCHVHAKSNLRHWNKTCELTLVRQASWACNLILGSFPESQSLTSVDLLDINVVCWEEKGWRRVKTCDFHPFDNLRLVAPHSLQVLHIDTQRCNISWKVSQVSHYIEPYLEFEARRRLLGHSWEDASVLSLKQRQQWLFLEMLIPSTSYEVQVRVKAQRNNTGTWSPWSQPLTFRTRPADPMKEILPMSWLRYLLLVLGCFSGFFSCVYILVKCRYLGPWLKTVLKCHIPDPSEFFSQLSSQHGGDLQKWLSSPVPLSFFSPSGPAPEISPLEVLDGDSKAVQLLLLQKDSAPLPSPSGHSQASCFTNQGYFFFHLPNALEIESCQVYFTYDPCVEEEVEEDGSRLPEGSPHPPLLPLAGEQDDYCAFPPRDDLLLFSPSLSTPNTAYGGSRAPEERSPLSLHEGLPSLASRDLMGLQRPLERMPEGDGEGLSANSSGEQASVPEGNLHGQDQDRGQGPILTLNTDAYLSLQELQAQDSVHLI
T1 sequence (P34902 whole entry, looked up): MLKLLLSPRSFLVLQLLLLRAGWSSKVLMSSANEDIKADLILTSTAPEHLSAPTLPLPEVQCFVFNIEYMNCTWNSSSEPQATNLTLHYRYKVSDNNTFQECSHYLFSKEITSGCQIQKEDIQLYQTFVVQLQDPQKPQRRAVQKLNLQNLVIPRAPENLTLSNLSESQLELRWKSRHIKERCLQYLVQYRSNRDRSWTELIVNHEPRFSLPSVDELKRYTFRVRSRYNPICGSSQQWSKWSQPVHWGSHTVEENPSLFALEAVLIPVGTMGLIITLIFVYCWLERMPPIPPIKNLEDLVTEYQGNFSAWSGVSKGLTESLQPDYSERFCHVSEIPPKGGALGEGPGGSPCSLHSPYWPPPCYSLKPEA

T2: His-tagged recombinant CD25 (human, UniProt P01589 22-213, limits assumed)
T2 construct: Captured via TrisNTA Biotin on SA chips; also called IL-2 receptor alpha; IL-2Rα; not shown: His tag
T2 sequence (looked up): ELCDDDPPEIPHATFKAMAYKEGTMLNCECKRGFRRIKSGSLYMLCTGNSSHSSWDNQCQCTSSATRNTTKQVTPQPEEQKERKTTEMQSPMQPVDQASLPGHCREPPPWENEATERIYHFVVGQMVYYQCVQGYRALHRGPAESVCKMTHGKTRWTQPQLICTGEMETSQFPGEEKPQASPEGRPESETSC

T3: trimeric IL-2 receptor on HEK-Blue IL-2 reporter cells (UniProt P01589 22-272; P14784 27-551; P31785 23-369, limits assumed)
T3 sequence (looked up) 1: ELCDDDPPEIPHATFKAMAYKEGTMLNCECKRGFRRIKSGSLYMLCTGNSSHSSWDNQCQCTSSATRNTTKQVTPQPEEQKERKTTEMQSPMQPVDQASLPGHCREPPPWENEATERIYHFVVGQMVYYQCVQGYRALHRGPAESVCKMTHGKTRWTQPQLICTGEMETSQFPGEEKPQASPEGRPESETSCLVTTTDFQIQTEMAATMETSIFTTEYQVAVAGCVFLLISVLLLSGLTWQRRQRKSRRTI
T3 sequence (looked up) 2: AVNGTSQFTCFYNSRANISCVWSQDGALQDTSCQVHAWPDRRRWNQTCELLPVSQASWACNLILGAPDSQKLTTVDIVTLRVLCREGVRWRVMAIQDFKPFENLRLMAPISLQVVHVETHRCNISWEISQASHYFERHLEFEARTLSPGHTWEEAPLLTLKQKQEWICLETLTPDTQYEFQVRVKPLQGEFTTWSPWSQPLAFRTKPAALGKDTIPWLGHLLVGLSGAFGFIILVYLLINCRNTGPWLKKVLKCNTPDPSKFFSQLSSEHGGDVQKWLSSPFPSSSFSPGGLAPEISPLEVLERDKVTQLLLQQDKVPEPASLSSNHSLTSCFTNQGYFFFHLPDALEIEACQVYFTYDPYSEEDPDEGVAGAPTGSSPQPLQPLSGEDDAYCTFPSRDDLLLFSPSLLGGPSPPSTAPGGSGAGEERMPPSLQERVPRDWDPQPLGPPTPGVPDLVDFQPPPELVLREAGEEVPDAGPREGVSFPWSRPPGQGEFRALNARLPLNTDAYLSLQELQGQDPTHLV
T3 sequence (looked up) 3: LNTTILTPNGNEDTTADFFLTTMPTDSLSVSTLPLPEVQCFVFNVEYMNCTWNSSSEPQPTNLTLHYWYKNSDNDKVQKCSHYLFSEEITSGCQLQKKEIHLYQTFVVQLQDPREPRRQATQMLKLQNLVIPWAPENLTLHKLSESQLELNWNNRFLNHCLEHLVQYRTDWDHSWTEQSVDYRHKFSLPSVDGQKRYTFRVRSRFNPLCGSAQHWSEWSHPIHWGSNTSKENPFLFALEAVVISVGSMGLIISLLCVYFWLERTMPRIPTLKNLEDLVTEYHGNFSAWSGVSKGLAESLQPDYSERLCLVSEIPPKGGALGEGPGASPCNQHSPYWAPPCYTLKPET


What was measured:
[1] = biological target: T1, IL-2R on murine splenocytes (C57BL/6); assay: cell-based or functional assay
[2] = biological target: T2, His-tagged recombinant CD25; assay: SPR (BIAcore 3000), His-tagged CD25 captured, kinetic titration of fusion protein
Experimental: (§1) HEK-Blue™ IL-2 reporter cells (Invivogen) were incubated with a dilution series (1:3 dilutions from 0.56 nM) of antibody-IL-2 fusion protein in growth medium for 20 hours Example 4. IL-2 fusion protein in vitro selectivity Binding affinities to CD25 measured by SPR Binding affinities of the IL-2 fusion protein to the IL-2 receptor CD25 were measured by SPR (BIAcore 3000, GE Healthcare, 33-1140587-3682). His-tagged recombinant CD25 was captured via TrisNTA Biotin on SA chips and Kinetic titration of IL-2 fusion proteins of the present invention was performed reaching concentrations up to 500 nM.

[3] = biological target: monoclonal anti-human IL-2 antibody Nara1; assay: ELISA, Nara1 coated, fusion protein titrated, anti-human IgG-Peroxidase; lowest concentration with signal at or above the cut point
[4] = biological target: T3, trimeric IL-2 receptor on HEK-Blue IL-2 …; assay: cell-based or functional assay
[5] = biological target: T4, monoclonal anti-human IL-2 antibody 5344 (BD, 555051); assay: sandwich ELISA, 5344 coated, fusion protein titrated, anti-human IgG-Peroxidase
T4 construct: Coated capture antibody
Experimental: The antibody-IL-2 fusion proteins were tested on a sandwich ELISA, to assess the correct folding of the IL-2 portion. […] The obtained signals (Absorbance 450-570 nm) were plotted as function of antibody-IL-2 fusion protein concentration (as log value). The $EC50$ values were interpolated fitting the data with GraphPad Prism 8 (Table 6).

[6] = biological target: T2, His-tagged recombinant CD25; assay: SPR (BIAcore 3000), His-tagged CD25 captured via TrisNTA Biotin on SA chip, kinetic titration of fusion protein
Experimental: as §1

Binder | EC50 CD8 cells (nM), pSTAT5 MFI [1] [nM] | EC50 NK cells (nM), pSTAT5 MFI [1] [nM] | EC50 Treg cells (nM), pSTAT5 MFI [1] [nM] | binding result [2] | Lowest concentration (nM) OD450-570 ≥ CP [3] [nM] | EC50 (M), SEAP of HEK-Blue IL-2 reporter cells [4] [M] | EC50 [5] [nM] | Kd [6] [nM]
DRO069 (other, also called IL-2 fusion protein to antibody B, linker 1 3 AA, linker 2 4 AA) heavy: QVQLVESGGGVVQPGRSLRLSCAASGYTFSSYLIEWVRQAPGKGLEWVAVINPGSGGTNYADSVKGRFTISADKSKNTAYLQMNSLRAEDTAVYYCARWRGDGYYAYFDVWGQGTTVTVSSASTKGPSVFPLAPSSKSTSGGTAALGCLVKDYFPEPVTVSWNSGALTSGVHTFPAVLQSSGLYSLSSVVTVPSSSLGTQTYICNVNHKPSNTKVDKRV[omitted - human IgG1 Fc] light: EIVLTQSPATLSVSPGERATLSCRASQSVSYGGGNFHLRPRDLISNINVIVLELKGSETTFMCEYADETATIVEFLNRWITFSQSIISTLTPTSSSTKKTQLQLEHLLLDLQMILNGINNYKNPKLTRMLTFKFYMPKKATELKHLQCLEEELKPLEEVLNLAQSKGGGGDSYMNWYQQKPGQAPRLLIYAASNLASGIPARFSGSGSGTEFTLTISSLQSEDAAVYYCQQSNEDPYTFGGGTKVEIKRTVAAPSVFIFPPSDEQLKSGTASVVCLLNNFYPREAKVQWKVDNALQSGNSQESVTEQDSKDSTYSLSSTLTLSKADYEKHKVYACEVTHQGLSSPVTKSFNRGEC | 6.8 | 0.9 | 6.6 | no binding (tested: concentrations up to 500 nM) | 0.83 | 3.45e-12 | 0.11 | –
ECV200 (other, also called IL-2 fusion protein to antibody B, linker 1 6 AA, linker 2 7 AA) heavy: QVQLVESGGGVVQPGRSLRLSCAASGYTFSSYLIEWVRQAPGKGLEWVAVINPGSGGTNYADSVKGRFTISADKSKNTAYLQMNSLRAEDTAVYYCARWRGDGYYAYFDVWGQGTTVTVSSASTKGPSVFPLAPSSKSTSGGTAALGCLVKDYFPEPVTVSWNSGALTSGVHTFPAVLQSSGLYSLSSVVTVPSSSLGTQTYICNVNHKPSNTKVDKRV[omitted - human IgG1 Fc] light: EIVLTQSPATLSVSPGERATLSCRASQSVSYGGGGSGNFHLRPRDLISNINVIVLELKGSETTFMCEYADETATIVEFLNRWITFSQSIISTLTPTSSSTKKTQLQLEHLLLDLQMILNGINNYKNPKLTRMLTFKFYMPKKATELKHLQCLEEELKPLEEVLNLAQSKGGGGSGGDSYMNWYQQKPGQAPRLLIYAASNLASGIPARFSGSGSGTEFTLTISSLQSEDAAVYYCQQSNEDPYTFGGGTKVEIKRTVAAPSVFIFPPSDEQLKSGTASVVCLLNNFYPREAKVQWKVDNALQSGNSQESVTEQDSKDSTYSLSSTLTLSKADYEKHKVYACEVTHQGLSSPVTKSFNRGEC | 6.9 | 0.9 | 3.7 | no binding (tested: concentrations up to 500 nM) | 0.28 | 3.42e-12 | 0.13 | –
BFC885 (other, also called IL-2 fusion protein to antibody B, linker 1 13 AA, linker 2 14 AA) heavy: QVQLVESGGGVVQPGRSLRLSCAASGYTFSSYLIEWVRQAPGKGLEWVAVINPGSGGTNYADSVKGRFTISADKSKNTAYLQMNSLRAEDTAVYYCARWRGDGYYAYFDVWGQGTTVTVSSASTKGPSVFPLAPSSKSTSGGTAALGCLVKDYFPEPVTVSWNSGALTSGVHTFPAVLQSSGLYSLSSVVTVPSSSLGTQTYICNVNHKPSNTKVDKRV[omitted - human IgG1 Fc] light: EIVLTQSPATLSVSPGERATLSCRASQSVSYGGGGSGGGGSGGGNFHLRPRDLISNINVIVLELKGSETTFMCEYADETATIVEFLNRWITFSQSIISTLTPTSSSTKKTQLQLEHLLLDLQMILNGINNYKNPKLTRMLTFKFYMPKKATELKHLQCLEEELKPLEEVLNLAQSKGGGGSGGGGSGGGGDSYMNWYQQKPGQAPRLLIYAASNLASGIPARFSGSGSGTEFTLTISSLQSEDAAVYYCQQSNEDPYTFGGGTKVEIKRTVAAPSVFIFPPSDEQLKSGTASVVCLLNNFYPREAKVQWKVDNALQSGNSQESVTEQDSKDSTYSLSSTLTLSKADYEKHKVYACEVTHQGLSSPVTKSFNRGEC | 26.4 | 2 | 0.9 | – | < 0.09 | 5.09e-12 | 0.25 | 54.1
EPK959 (other, also called IL-2 fusion protein to antibody B, linker 1 0 AA, linker 2 1 AA) heavy: QVQLVESGGGVVQPGRSLRLSCAASGYTFSSYLIEWVRQAPGKGLEWVAVINPGSGGTNYADSVKGRFTISADKSKNTAYLQMNSLRAEDTAVYYCARWRGDGYYAYFDVWGQGTTVTVSSASTKGPSVFPLAPSSKSTSGGTAALGCLVKDYFPEPVTVSWNSGALTSGVHTFPAVLQSSGLYSLSSVVTVPSSSLGTQTYICNVNHKPSNTKVDKRV[omitted - human IgG1 Fc] light: EIVLTQSPATLSVSPGERATLSCRASQSVSYNFHLRPRDLISNINVIVLELKGSETTFMCEYADETATIVEFLNRWITFSQSIISTLTPTSSSTKKTQLQLEHLLLDLQMILNGINNYKNPKLTRMLTFKFYMPKKATELKHLQCLEEELKPLEEVLNLAQSKGDSYMNWYQQKPGQAPRLLIYAASNLASGIPARFSGSGSGTEFTLTISSLQSEDAAVYYCQQSNEDPYTFGGGTKVEIKRTVAAPSVFIFPPSDEQLKSGTASVVCLLNNFYPREAKVQWKVDNALQSGNSQESVTEQDSKDSTYSLSSTLTLSKADYEKHKVYACEVTHQGLSSPVTKSFNRGEC | 16 | 1.9 | 16 | no binding (tested: concentrations up to 500 nM) | 7.5 | 3.66e-12 | 0.15 | –
